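Tested at 5 concentrations; 48 h exposure; 96-well plates; endpoints linearly interpolated, else capped at highest concentration. The concentration for 50% growth inhibition is given as GI50. The concentration for full growth arrest is given as TGI.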 The source made the active and inactive calls.
Legend:
CCRF-CEM leukemia = test: DTP human tumour cell line panel, 48 h
SR leukemia = test: DTP human tumour cell line panel, 48 h

SMILES: NS(=O)(=O)c1ccc(-n2cc(/C=N/Nc3ccc(C(=O)O)cc3)c(-c3ccccc3)n2)cc1
- GI50 (CCRF-CEM leukemia): inactive
- TGI (CCRF-CEM leukemia): 19.2 µM
- GI50 (SR leukemia): inactive
- TGI (SR leukemia): 7.31 µM

Source: PubChem BioAssay (NCI)
